The list shows a part of the results. At the low end of the ranking the order means little. The protein was read in a cell extract, so binding may be indirect.
target: T1, HNF4alpha8 (COS-7 nuclear extract) (UniProt P41235-5); assay: protein-binding microarray; conditions: COS-7 nuclear extract on double-stranded Agilent 4x180k PBM; binding buffer, salt, pH and temperature not given; high values mean tight binding; double strand, one strand shown; sequences stand for … in …GCCTAGGGAGATTAGAGTATCGGTCGA
T1 sequence: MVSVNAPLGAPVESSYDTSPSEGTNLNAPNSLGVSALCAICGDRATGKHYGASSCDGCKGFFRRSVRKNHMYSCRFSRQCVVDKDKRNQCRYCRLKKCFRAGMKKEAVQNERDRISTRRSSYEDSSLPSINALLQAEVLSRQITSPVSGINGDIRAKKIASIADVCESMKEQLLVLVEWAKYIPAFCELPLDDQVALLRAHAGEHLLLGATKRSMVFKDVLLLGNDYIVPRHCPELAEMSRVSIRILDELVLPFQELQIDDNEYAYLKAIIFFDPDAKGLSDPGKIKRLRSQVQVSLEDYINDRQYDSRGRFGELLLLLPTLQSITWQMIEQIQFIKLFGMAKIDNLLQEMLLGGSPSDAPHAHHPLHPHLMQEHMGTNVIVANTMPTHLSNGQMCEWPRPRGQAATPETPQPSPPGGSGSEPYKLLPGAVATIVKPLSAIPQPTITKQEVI

| Sequence | binding signal (log2 normalized intensity) |
| --- | --- |
| TGGAAGTCGCCGTGAGGTTATTTGCAGACT | 0.17 |
| ATCAAAGTATGAGAGCCTGAGAACACTTAT | -1.31 |
| AGAACTCTTCGAAGACACAAAGCTTGGGTT | -1.3 |
| GTATCTGATCTGTGTTTCCACAAACACAGA | -0.158 |
| GGGATTACAGGCGTGAGCCACCGCGCCCCG | -1.19 |
| GAGCACTCATTCCTATTCGGTGCTGACCTT | 3.97 |
| ACTGATAATTGAAAACAGAGATTGGGACTA | -1.26 |
| CTGACATTCTCCACTTGGTGACTGTCATTT | 0.274 |
| AGGAAGGTCTGATGGGCCAGGCAGGACAGT | -1.32 |
| TGAACTTTGAACACCTCTTCTTTCTTCTCT | 4.71 |
| GAGAGGCTGCTCAGTTTAAGTCAAAATATA | -0.965 |
| CGGTCTGCCCTCTTGTCCTTCCCCTTTTGT | 3.33 |
| AAGTAGGGAGGAGGGGAGGGGCCCATGTGG | -1.1 |
| CCGAGGTCACTGTATGCCCGAAAGACGCGG | -1.31 |
| TAGCATCACGAAAGGCAACATCTTGAGCCA | -1.29 |
| TAAAACCATGCAAATTGCTGACTTTCTGTG | -1.29 |
| CTACAATCCTCTAAAAAAATAGTTTCAACT | -1.35 |
| TTGGGCGCCGGAACTGGTCCGGCCCGACTC | -1.35 |
| AGGACATTTCAGCAAAGTTCAGAGAGGAAT | -1.37 |
| ATAGAGAAGTTTTGAAACCCTGTTCTTGTA | -0.0698 |
| CAGGTATTTGGACTTTTTGTAGTTTCAGCT | 2.16 |
| GGGTCAAGAAGCTCTGGCGCCATCTGGTTT | -1.24 |
| CTCCTGGCAGAGCATAGAAGTAAGAAATCA | -1.09 |
| AATCGCCTGATTGGTCATACTTGACCCACA | 3.3 |
| TCTTAACATCAGAAGTTGGACTTTGTACAT | 9.76 |

| Sequence | binding signal (log2 normalized intensity) |
| --- | --- |
| GATCTCAGGGTGGACTTTAAACATTCCCAC | 5.2 |
| TGGTTGGATTTCTTGGCTTCTCTTGGACCT | 3.54 |
| AGCTGACGCCCCACCCCCTCCACCCCTGCC | 6.68 |
| TCATGGGTGACCCGTTAAGAATGAGACATT | 1.58 |
| GACCTTGAAATGCCATGTGATCTCTAGACT | 1.88 |
| GTAAAGGGTGACTTTCCAGAACTATCATAC | -1.22 |
| AAGTTACAAGATCTTTGGACTATTGTGAAG | 3.34 |
| TCAACCTGTGAAAATTGGTACTGGACATGG | 1.33 |
| GACCATGTGATGTGAAGAGTGTGGACTTTC | 4.87 |
| CCTGGCTTGTAATTCAAGACTATAGACTGT | 0.744 |
| TTATCTTGGGGCTAATGTCTCTCTGGCCGG | 0.958 |
| TTGTTTACTCATGTGGTCCTAAGACTAACC | 0.432 |
| CCTGTGATACAACGGTTCAAAGGACAGACT | 2.41 |
| GCGCCCGTAATCCCAGCTTATGTTTGCAAG | -0.507 |
| CAAGGTTTGTAACAAGTGCTTTCTTCCCTC | 0.407 |
| TTCTAGGTAATCACCCTCTCCACCCCCATG | 5.07 |
| TGCTTGGAATGCTATTTGCATTGACACAAC | 1.19 |
| AGGCCAAGCAGCTGTGATGAGGCCAGCAGG | -1.21 |
| TCTGTGTACAAAGCCCCATATTCATAGACT | 1.92 |
| ATTACCTGGTCAGAAGAAACATGCGATACT | -1.31 |
| GGGGAACAGGCCTCCCCCCTTCTGTTTCCA | 2.54 |
| TAGGACAGAGCAGATGAAAGTAGTTGGGGA | -1.3 |
| TAGGTGGTCTGTTTGTGAAACAGTGGGCAA | 0.904 |
| TTTGAGTCATAAGAAACATTTTACAACCTA | -1.39 |
| GGAACAAAGGTCAGTCCCGCAGTGAGGGAC | 3.02 |

| Sequence | binding signal (log2 normalized intensity) |
| --- | --- |
| GGCACAATGCTGCAATTCTCTTTGCCAAAG | -1.29 |
| TAACCAGTGAAATTGACAAGAGTGTGGCTC | 0.244 |
| GATTGCTTAATGCAAACTCCAGCATGAGGG | -1.31 |
| AAGCAGCATAGGGAGAATGATAAGATATAT | -1.37 |
| TTTGTGTGAGGGAGAAGTTTTATGGCAGGG | 0.341 |
| TCAGCCTGGCTGAAGACCTGTACAGGGACT | 1.98 |
| ATCAAGGAGGACTTTGGAATGGCAGTGCTT | 3.72 |
| GGTAAACAGCCTCTAAGCACGGCCAGGATT | -1.34 |
| GCCACAATTAATGTACCCCCGGAAACACGT | 4.05 |
| GGGAATTACTCTTCTATTACATGGAAGCCT | -0.365 |
| TCGAATGGTATGCTAGAGTACTTGGACTTT | 7.5 |
| ATCCTAGGAGAGCCAAATCTTAAGGGTTAA | 0.92 |
| TTCTGAGGAGAAGAATGAAAGCCAAGGCAG | -1.26 |
| AATACACAGCTAGCAGGTGACAAATCCAGG | -1.4 |
| GGCCGTGGGTGGAAGGAAAAGAGGAAAACC | -1.35 |
| TCTATCTCATTACTAATCCTCTTCTGTCCT | 1.01 |
| GCAAATAAAGCTAACCAGCTCTATCAGTCT | -1.25 |
| TCTGCGTCTTACTAAATGCAGCCTTGGGCA | -0.894 |
| GGAGGTGACCTTTGGTTGTCCTTACTGCTA | 4.22 |
| TATGCTCACTGACCTCTGCCCTACTGTATA | 4.37 |
| ACTGAATGTGACCTTTTGGACCACAGAGTG | 5.97 |
| CCACCTAATTTAGATATCGCTCCAAGAGCC | -1.35 |
| AGTCTGACTACTTCTCACCACCTCTGCTGC | -1.27 |
| TTCCTATCTCTACTTGCCGAAACATTTTCT | -1.29 |
| CAGCCACCAAAGCAGCTAGCAAATACAAGG | -1.4 |

| Sequence | binding signal (log2 normalized intensity) |
| --- | --- |
| TTGACAGGCAACAATTTGAGGGGTCAAGAA | 3.03 |
| CTGACCTCTTTTGGATTTTTCCATATCTGT | 1.57 |
| ACATTTATTGGACTAGGCACAGGAACCTGT | -0.578 |
| CCTTTGTGCTGACTAAGAGGAGAAGCAAAT | -1.32 |
| TCATAGTAAATCCACTTCTGAGGAGAAGAA | -1.32 |
| TTCGGACATTCCAGGGAACAAGGGGTGGAT | -1.13 |
| TTGTCCCTTTTCTATCCAGATGATCTTTAC | 2.82 |
| GCAAGAGTCCAAATTCCTAGCCCTCTTTCA | 1.48 |
| ATGATGAAATTTCCTCTTACCACATCTCAA | -1.47 |
| TTACTTAATCCCTTGGAATGTCCTTTCCTC | 1.96 |
| TGGACTCTGTTTTAGTTGAGTGTGACAAGA | 1.73 |
| TCTGACCAACGCCTCCCTCCTTCCGCGGAC | 0.874 |
| CTCACCTGGCTTCCCTTTGATCTTTCCCTT | 1.83 |
| CAACCACTCTTATCAGACAGGATATTTTGA | -0.524 |
| CTCTCCCCTCGACGCGCCGGCGCAGCCGCG | 1.24 |
| GAGGCTGCTCTCTGTCCCTGCACCCTACCC | 1.89 |
| TTCAGCCATTTTATGACCATGAGGTGACGG | 1.4 |
| TCTTTATTTATTAACTGGAGATAACACAAC | -0.103 |
| GTAGGCATAGGAGAAACACATAAACCCTGA | -1.15 |
| AGCATGCTTGGAATATTTAAGGATCCAGAC | -0.132 |
| ACACCTGTGGGTAATTAATCTGATCGCCCT | 1.6 |
| TCTAATCAGGTCGCTGCCTGCCCCTCTGAC | 3.42 |
| CGGGTCAAGGGTTCAGGGCTCAGTTGACAT | 2.42 |
| GCTCAGGCACATTCTGCTGTGTATCACCTC | 0.776 |
| AAAATATTGCCAATATCTGCCATCTACTAA | -1.34 |

| Sequence | binding signal (log2 normalized intensity) |
| --- | --- |
| TTATCTTGGTGCCTGCAGAGCCTCCCCATT | 2.69 |
| TCACATCTATCTCCCTACCCTCACCCCTGC | 3.82 |
| GGGAATTTCCAAAGAGCAGCTAGCTCCAGT | -1.39 |
| GGTTTATGGCTTATGCATGTTTATGTGAAT | 1.77 |
| GAGGTTCTTGTAAGGTTCTTGTATCTGATC | 1.67 |
| CAAATTTTGATAATTACAGAGCAAGTAGAG | 0.0555 |
| TGTAGAGGAGATGTGGTGGACTTTAACGAC | 3.25 |
| TAACCGAAAGTCTGACCCTTGACCAAGCAG | 4.99 |
| GCAAGGGTCAGAGTAAAGCTCCAGTCTCCT | -1.29 |
| GTAGGCACAAAGGTGCAAAGTACATATTTA | 5.19 |
| ATCTCCAGCTTATCTGTCCATCCCTCACTC | -1.23 |
| CTCCCAAGGTATCCTCCTAGAGTCCAAGGT | 3.51 |
| GCTAAAAGTTGAATTCTTGACTTTGGACTT | 6.55 |
| TCATCAGCACATTGGTGAGAATGGAGGTAG | 0.426 |
| AAGCAACTCCTCTGTACAGCTCTTGTGCTC | -1.23 |
| AGTTTATCTAAGATTCCCCCTACCCTCAAT | 4.68 |
| GAAGGGCAGGGCCTGGGAGATAACCCATCT | -1.24 |
| AAACTGTTCAAGACTTTCAGCCAACGCTGA | -1.35 |
| TAATTGGAAATAATGCGACTTGCCTTGTGT | 1.13 |
| CCAGGCTGATTTAGCTATTTGACCTTCGGC | 5.84 |
| AAAGTATCTAAGGGCCTAGAAGAGTTCCTG | -1.25 |
| CCAGACACTGCTCTAGGCATTGGAGATATG | -1.28 |
| GTGTGTAGACTCCAGGCTTGTCCTTTTGAC | 2.26 |
| TGTGGTTCCCAAGAAGAGCCCAGACAAGCA | -1.23 |
| GCCCTCCAAACTGAGAGATTTTTTCTTCCA | -0.439 |

| Sequence | binding signal (log2 normalized intensity) |
| --- | --- |
| TGGCTTATGCAAATGTTATGGCTGGTTTGG | 1.58 |
| GCAGATGTGTCTTTATAACAGACTGTAGGC | 0.575 |
| CTGCTGAGAGAGCAGGTTGAGTATCTACCA | -1.28 |
| ATGACTGCAGAGCTTGCTCTCACCAGCTTC | -1.3 |
| TGGTTGACATACTTCTGAGTTTTATCAGCT | -1.2 |
| ATCAGGCTCTGGAATCTCTGGATTTCAGGT | 0.344 |
| TTCTCAGAAACGCCTGGCGCTTATCTGAGC | -1.33 |
| CGTCGATTAGCTGGGGACCCGTCGCTGCTG | -1.44 |
| GGGGATGAGATCTGAAGATAAATGCCTTAG | -1.42 |
| AGTGCAAGGCCCAGCTAGAAGCAGTGGGAC | -1.23 |
| GTGCCCTTTGAGATTTGCATTCATGATCTT | 2.02 |
| GTGATCAGGTGTGGGCATTAGCAGGGAGGA | -1.41 |
| TTACTTCATAGGATTAAGTGCATACTCAAA | 1.14 |
| GAACTGGTGACCGGACACAAAAGCTGCTGC | -1.41 |
| ATGGGAATTAGGGAGTAGGGACAGCTAGTC | -1.28 |
| GACTACTTCTCACCACCTCTGCTGCGATCA | -1.41 |
| TGACAATTACATAGTTGAAATAGCATGAAT | -1.32 |
| TCTTTGGTGGTGGGGGGTAGCCACTGACAG | -1.2 |
| GATGTTCTACACTGCTTACCCTGCAGTGTG | -0.757 |
| GGTGGTGATGGTGGGAGGGAGGCTTTTGCA | -1.33 |
